The structures appear in SMILES notation. In all, about 310,000 compounds went through this assay and about 14,000 (4.5%) showed an effect of 50% or more. The effect is printed as a negative number. This is one part of the list.

Experimental findings from paper PMC4336329 (PLoS ONE, 2015) are described below.
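Further: peak tail current of the secondary pulse compared with the same well before compound.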

human ether-à-go-go-related gene (hERG) potassium channel, sequence (Q12809 whole entry, looked up): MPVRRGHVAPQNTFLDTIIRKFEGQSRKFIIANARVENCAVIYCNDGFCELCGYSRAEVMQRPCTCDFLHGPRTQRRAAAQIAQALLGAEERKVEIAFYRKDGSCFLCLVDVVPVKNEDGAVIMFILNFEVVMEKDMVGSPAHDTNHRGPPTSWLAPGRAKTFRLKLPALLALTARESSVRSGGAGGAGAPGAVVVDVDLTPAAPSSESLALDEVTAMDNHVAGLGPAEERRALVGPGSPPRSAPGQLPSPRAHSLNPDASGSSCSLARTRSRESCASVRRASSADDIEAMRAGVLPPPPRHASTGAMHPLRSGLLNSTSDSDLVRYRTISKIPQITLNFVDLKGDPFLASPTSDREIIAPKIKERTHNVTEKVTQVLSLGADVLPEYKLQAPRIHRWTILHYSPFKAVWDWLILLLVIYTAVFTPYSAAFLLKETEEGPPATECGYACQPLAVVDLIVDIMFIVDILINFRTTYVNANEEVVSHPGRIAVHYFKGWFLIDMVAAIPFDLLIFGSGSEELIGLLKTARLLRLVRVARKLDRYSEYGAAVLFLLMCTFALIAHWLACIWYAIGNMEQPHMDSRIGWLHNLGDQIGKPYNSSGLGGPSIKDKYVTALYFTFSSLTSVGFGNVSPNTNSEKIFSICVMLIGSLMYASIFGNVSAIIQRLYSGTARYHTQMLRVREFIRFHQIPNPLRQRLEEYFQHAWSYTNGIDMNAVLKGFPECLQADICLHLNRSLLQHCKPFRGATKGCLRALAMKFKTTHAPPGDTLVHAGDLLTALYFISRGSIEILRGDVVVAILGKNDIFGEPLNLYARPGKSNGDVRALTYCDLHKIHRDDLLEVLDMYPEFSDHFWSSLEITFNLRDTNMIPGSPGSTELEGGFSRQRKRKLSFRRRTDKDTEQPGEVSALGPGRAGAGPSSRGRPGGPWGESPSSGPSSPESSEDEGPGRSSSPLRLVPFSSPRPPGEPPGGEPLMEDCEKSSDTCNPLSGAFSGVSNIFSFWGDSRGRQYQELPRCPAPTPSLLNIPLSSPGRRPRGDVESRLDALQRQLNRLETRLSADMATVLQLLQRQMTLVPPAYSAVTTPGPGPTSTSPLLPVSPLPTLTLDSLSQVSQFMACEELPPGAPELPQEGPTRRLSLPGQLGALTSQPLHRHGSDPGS

This assay concerns the target human ether-à-go-go-related gene (hERG) potassium channel (human, UniProt Q12809). As to the kind of experiment: primary screen, population patch clamp on CHO cells stably expressing hERG.
Turning to `COc1ccc(C(=O)C[N+]2(C)CCOCC2)cc1.[I-]`, the “hERG current change (%, negative = inhibition) at 10uM” value was found to be 8.6%.
For `CCOCCCNC(=S)N1CCN(c2nc(-c3ccc(F)cc3)cs2)CC1`, the “hERG current change (%, negative = inhibition) at 10uM” value is -16.3%.
Turning to `O=S(=O)(c1cccc2cccnc12)N1CCc2ccccc21`, the “hERG current change (%, negative = inhibition) at 10uM” value was found to be 2.89%.
For the compound `CCOC(=O)NC1(C(F)(F)F)C(=O)N(Cc2ccccn2)C2=C1C(=O)CC(C)(C)C2` (centres unmarked), the “hERG current change (%, negative = inhibition) at 10uM” value amounted to 20.3%.
On to `COc1cc(OC)cc(-c2nc3cc(C)ccc3o2)c1`, for which the “hERG current change (%, negative = inhibition) at 10uM” value is given as -18%.
For `CCCCn1c(N)c(N(CCOC)C(=O)C2CC(=O)N(c3cccc(SC)c3)C2)c(=O)[nH]c1=O` (centres unmarked), the “hERG current change (%, negative = inhibition) at 10uM” value amounted to 14.4%.
For `COc1ccc(C(=O)CN2C(=O)NC3(CCc4ccccc43)C2=O)cc1` (centres unmarked), the “hERG current change (%, negative = inhibition) at 10uM” value is on record as -0.107%.
On to `Cc1cc(S(=O)(=O)NCc2ccco2)c(C)s1`, for which the “hERG current change (%, negative = inhibition) at 10uM” value is listed as 12%.
Take `CCOC(=O)C1CCCN(c2c(C(=O)c3ccccc3)cnc3ccc(OC)cc23)C1` (centres unmarked): the “hERG current change (%, negative = inhibition) at 10uM” value was -37.5%.
Turning to `O=C(c1ccc2nccnc2c1)N1CCN(Cc2ccc3c(c2)OCO3)CC1`, the “hERG current change (%, negative = inhibition) at 10uM” value is recorded as -7.14%.
Take `O=C(NCC1CCN(Cc2ccccc2Cl)CC1)Nc1ccccc1F`: the “hERG current change (%, negative = inhibition) at 10uM” value is -44.7%.
In the case of `Cc1cc(C(=O)N2CCCC(N3CCN(c4ccccc4C)CC3)C2)n(C)n1` (centres unmarked), the “hERG current change (%, negative = inhibition) at 10uM” value is -88.8%.
For the compound `CCN(CC)C(=O)CSc1nc2ccc(NC(=O)CSc3nnc(N)s3)cc2s1`, the “hERG current change (%, negative = inhibition) at 10uM” value was determined as 12.8%.
In the case of `O=C(N1CCCCC1)N1CCN(C(=O)N2CCCCC2)CC1`, the “hERG current change (%, negative = inhibition) at 10uM” value was 24.1%.
For the compound `Cc1ccc([N+](=O)[O-])c(OCc2ncc(Cl)n2C)c1`, the “hERG current change (%, negative = inhibition) at 10uM” value worked out at 10.3%.
`CC1CN(CCCOc2ccc([N+](=O)[O-])cc2)CC(C)O1.O=C(O)C(=O)O` (centres unmarked): the “hERG current change (%, negative = inhibition) at 10uM” value is on record as -71.6%.
On to `C=C(C)CCC1(C)NC(=O)N(c2ccccc2)N1` (centres unmarked), for which the “hERG current change (%, negative = inhibition) at 10uM” value is given as -4.03%.
For `CNCC(O)c1cccc(OC(=O)c2ccccc2C)c1.Cl` (centres unmarked), the “hERG current change (%, negative = inhibition) at 10uM” value is listed as -9.69%.
As for `Nc1cccnc1Oc1ccc(F)cc1`, the “hERG current change (%, negative = inhibition) at 10uM” value was found to be 7.17%.
On to `COc1ccccc1NS(=O)(=O)c1cc(NC(=O)c2sccc2C)ccc1N1CCOCC1`, for which the “hERG current change (%, negative = inhibition) at 10uM” value is -7.07%.
Consider `O=C(CN1CCN(c2cccc(Cl)c2)CC1)NCc1ccccc1`, for which the “hERG current change (%, negative = inhibition) at 10uM” value is on record as -15.5%.
Turning to `CCCC(NC(=O)COc1cc2c(c3oc(=O)c(C)c(C)c13)CCC(C)(C)O2)C(=O)O` (centres unmarked), the “hERG current change (%, negative = inhibition) at 10uM” value worked out at 17.4%.
With `COc1ccc(C)c2sc(=NC(=O)c3cccc(N4C(=O)CCC4=O)c3)n(C)c12`, the “hERG current change (%, negative = inhibition) at 10uM” value is listed as -2.08%.
The same measure for `O=C(Nc1ccc(NC(=O)c2ccco2)c(Cl)c1)c1cccc([N+](=O)[O-])c1`: 26.7%; for `CC(OC(=O)C1CCN(S(=O)(=O)c2ccc3c(c2)OCCO3)CC1)C(=O)N(C)c1ccccc1` (centres unmarked): -25%; for `C/C(=N\NC(=O)CCC(=O)O)c1c(-c2ccccc2)c2cc(Br)ccc2[nH]c1=O`: 6.72%.
Regarding `CCC(C)Sc1nc2c(cnn2-c2ccc(C)cc2)c(=O)[nH]1` (centres unmarked), the “hERG current change (%, negative = inhibition) at 10uM” value turned out to be 10.2%.
Take `CSc1nc(C)cc(Oc2ccc(=O)n(C)n2)n1`: the “hERG current change (%, negative = inhibition) at 10uM” value was determined as 4.45%.
As for `C/C(=N\NC(=O)c1sccc1C)c1cccnc1`, the “hERG current change (%, negative = inhibition) at 10uM” value is given as 18.9%.
To `Cc1cc(NC(=O)CSc2nc3c(sc4ccccc43)c(=O)n2CCCN2CCOCC2)n[nH]1` belongs 2%; to `COc1ccc(C(=O)C2CCN(C(=O)c3ccc(OC)cc3)CC2)cc1`, -77.1%.
Regarding `Cc1nn(Cc2c(Cl)cccc2Cl)c(C)c1NC(=O)/C=C/c1cnn(C)c1C`, the “hERG current change (%, negative = inhibition) at 10uM” value is 8.85%.
With `CCCNC(=O)c1nn2cc(Br)cnc2c1Cl`, the “hERG current change (%, negative = inhibition) at 10uM” value is reported as -73.2%.
On to `O=c1[nH]c2ccccc2n1CCCSc1cnc2ccccc2n1`, for which the “hERG current change (%, negative = inhibition) at 10uM” value is -16.8%.
As to `Cn1c(Sc2nc3ccccc3n2C)nc2ccccc21`, the “hERG current change (%, negative = inhibition) at 10uM” value is recorded as -22.1%.
For the compound `Cc1ccc(S(=O)(=O)NCCC(=O)NCC(=O)Nc2c(C)cccc2C)cc1C`, the “hERG current change (%, negative = inhibition) at 10uM” value was -3.41%.
To `O=C(Nc1cccc(-n2cnnn2)c1)c1ccncc1` belongs -23.9%; to `COc1ccc(NS(=O)(=O)c2ccc(NS(=O)(=O)c3cccs3)cc2)c(OC)c1`, -2.15%.
As to `CC1(C)CC(=O)C2=C(C1)Nc1ccccc1NC2c1ccccn1` (centres unmarked), the “hERG current change (%, negative = inhibition) at 10uM” value was determined as 3.39%.
The same measure for `COc1cc2c(cc1OC)CN(CC(=O)Nc1ccc3c(c1)OC(F)(F)O3)CC2`: -14.3%; for `CC(C)(C)[C@H]1C=C(C(=O)NCc2ccccc2)O[C@@H](OCc2ccc(CO)cc2)C1`: -12.9%; for `CC1(C)Cc2ccccc2-c2nc(CN3CCOCC3)[nH]c(=O)c21`: -4.72%.
Turning to `COCCSc1ccccc1C(=O)Nc1cc(C)cc(C)c1`, the “hERG current change (%, negative = inhibition) at 10uM” value is given as 8.71%.
The same measure for `C/C(=N\NC(=O)CCCNc1ccccc1)c1ccncc1`: 16.8%.
